Data: PubChem BioAssay AID1460 (National Center for Advancing Translational Sciences (NCATS), 2008)
Among all 270,000 compounds or so, about 5,800 (2.1%) were called active. Inconclusive means that the source gave no clear call. Such entries were picked first, then a sample of the others. The call rests on the fitted dose curve; in most records, active means well fitted inhibition curve with a large enough effect; inconclusive means small, poorly fitted or top-dose-only effect; inactive means flat fitted curve, though single readings scatter. Potencies of inconclusive entries are doubtful fits and often do not repeat.

Biological target: Microtubule-associated protein tau (Homo sapiens) (UniProt P10636)
UniProt P10636, sequence (P10636 whole entry, looked up): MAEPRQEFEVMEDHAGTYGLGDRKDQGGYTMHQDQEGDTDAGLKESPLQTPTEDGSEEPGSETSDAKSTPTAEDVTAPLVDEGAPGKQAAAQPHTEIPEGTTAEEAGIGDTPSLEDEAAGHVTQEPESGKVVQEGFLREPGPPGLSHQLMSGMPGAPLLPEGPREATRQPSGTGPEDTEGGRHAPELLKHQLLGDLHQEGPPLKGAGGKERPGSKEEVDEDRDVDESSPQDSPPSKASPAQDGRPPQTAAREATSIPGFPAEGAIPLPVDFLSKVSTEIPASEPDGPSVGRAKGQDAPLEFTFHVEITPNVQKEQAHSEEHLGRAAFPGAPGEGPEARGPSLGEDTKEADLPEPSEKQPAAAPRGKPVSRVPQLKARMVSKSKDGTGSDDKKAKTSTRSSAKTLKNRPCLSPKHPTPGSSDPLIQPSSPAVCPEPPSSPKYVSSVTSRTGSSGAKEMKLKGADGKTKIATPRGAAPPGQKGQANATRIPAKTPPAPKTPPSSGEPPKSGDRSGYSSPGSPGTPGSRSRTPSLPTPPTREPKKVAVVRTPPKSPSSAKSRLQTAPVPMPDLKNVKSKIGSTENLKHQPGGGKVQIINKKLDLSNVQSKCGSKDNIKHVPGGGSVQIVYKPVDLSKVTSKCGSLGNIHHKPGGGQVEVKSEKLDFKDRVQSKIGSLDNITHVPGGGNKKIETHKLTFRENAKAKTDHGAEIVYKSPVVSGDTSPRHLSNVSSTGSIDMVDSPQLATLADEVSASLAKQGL
Experiment: qHTS for Inhibitors of Tau Fibril Formation, Thioflavin T Binding; further: nearly all actives have a fitted effect of over 55% in size
Conditions: recombinant tau K18 P301L (four-repeat tau fragment), heparin-induced fibrillization, ThT fluorescence; series mostly up to 57.4 µM
Summary of the method: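 Recombinant human tau K18 fragment […] carrying P301L, 15 uM unlabeled plus 0.24 uM Alexa 594-labeled, was fibrillized with 20 uM heparin in 100 mM sodium acetate pH 7 for 6 hr at 37 C; 30 uM ThT fluorescence read after 1 hr.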
Potency means the concentration at half of the fitted maximal effect; tags describe the fitted curve by direction and shape.

| SMILES | Potency |
| --- | --- |
| COc1cc(/C=N/NC(=O)C2COc3ccccc3O2)ccc1O (stereo not given) | inconclusive: 39.8 µM [inhibitor, single point] |
| COc1ccc(-n2cnc3cc(C(=O)NCCC4=CCCCC4)ccc32)cc1 | inconclusive: 3.98 µM [inhibitor, full curve] |
| CCCCN=C1NN=C(c2ccc(C)c(C)c2)CS1 | inconclusive: 31.6 µM [inhibitor, single point] |
| O=C1NC(c2ccncc2)Nc2sc3c(c21)CCCC3 (stereo not given) | inconclusive: 22.4 µM [inhibitor, partial curve, poor fit] |
| CCc1nnc(NC(=O)c2cccc(S(=O)(=O)N(C)c3ccc(OC)cc3)c2)s1 | inactive |
| COc1cccc(Nc2nc(-c3ccc(O)cc3)cs2)c1 | active: 11.2 µM |
| COCCn1nnnc1CN(Cc1cc2cc(OC)c(OC)cc2[nH]c1=O)C1CCCC1 | inactive |
| Cc1ccc2oc(=O)c(-c3nc(-c4cccs4)no3)cc2c1 | inactive |
| Cc1nn(-c2cc(N3CCCCC3)ccc2[N+](=O)[O-])c(=O)c2ccccc12 | inconclusive: 17.8 µM [inhibitor, partial curve] |
| CC(C)CCOCC(=O)Nc1cccc(C(=O)O)c1 | inconclusive: 44.7 µM [inhibitor, single point] |
| Nc1nc(SCC(=O)Nc2cc(S(=O)(=O)N3CCOCC3)ccc2Cl)n[nH]1 | inactive |
| BrC(=C\c1ccccc1)/C=N/Nc1nc(N2CCOCC2)nc(N2CCOCC2)n1 | inconclusive: 15.8 µM [inhibitor, partial curve] |
| COc1cc(NC(=O)CSc2ccc(-c3sc(C)nc3C)nn2)cc(OC)c1 | inconclusive: 17.8 µM [inhibitor, partial curve] |
| COc1ccc(N2CCN(CC(O)COCCOc3ccc(Br)cc3)CC2)cc1 (stereo not given) | inconclusive: 14.1 µM [inhibitor, partial curve] |
| COc1ccc2c(c1)c(=O)c(C(=O)c1ccc(Cl)cc1)cn2CC(=O)Nc1ccc(F)cc1 | inconclusive: 14.1 µM [inhibitor, partial curve] |
| COc1ccc(OC)c(NC(=O)C2CCCN2C(=O)C2CCC(C)CC2)c1 (stereo not given) | inactive |
| O=C(c1ccco1)N1CCN(C(=O)c2cc3c(s2)-c2ccccc2OC3)CC1 | inconclusive: 20 µM [inhibitor, partial curve] |
| O=C(c1ccc(CSc2ccc(Cl)cc2)cc1)N1CCCC1 | inconclusive: 11.2 µM [inhibitor, partial curve, poor fit] |
| O=C(CSc1nc2ccccc2n1Cc1cccc(C(F)(F)F)c1)NCc1ccccc1 | inactive |
| CCOc1cccc(C2Oc3nc(SC)nnc3-c3ccccc3N2C(C)=O)c1OC (stereo not given) | inactive |
| Cc1cccc(CSc2nc3c(c(=O)n2C)SCC3)c1 | inconclusive: 39.8 µM [inhibitor, single point] |
| CC(=O)N1CCc2cc(CNS(=O)(=O)c3ccccc3C(F)(F)F)ccc21 | inactive |
| C/C(=N\NC(=O)c1cccc(N/N=C(\C)c2ccccc2)c1)c1ccccc1 | inconclusive: 7.08 µM [inhibitor, partial curve] |
| CCSc1nnc2c(n1)OC=Nc1ccc(Br)cc1-2 | inconclusive: 11.2 µM [inhibitor, partial curve] |

| SMILES | Potency |
| --- | --- |
| O=C(Cn1cnc([N+](=O)[O-])c1)Nc1cc(Oc2ccc(Cl)cc2Cl)cc([N+](=O)[O-])c1 | inconclusive: 35.5 µM [inhibitor, single point] |
| O=C(Nc1c(C(=O)O)[nH]c2ccccc12)c1cccc(C(F)(F)F)c1 | inconclusive: 39.8 µM [inhibitor, partial curve] |
| CCc1nn(CC(=O)NCC(C)c2ccccc2)c(=O)c2cc3c(OC)cccc3n12 (stereo not given) | inactive |
| O=C(NCCc1c[nH]c2ccccc12)c1ccc(-n2cnnn2)cc1 | inconclusive: 28.2 µM [inhibitor, partial curve] |
| O=C(Nc1cccc(-c2nc3ccccc3s2)c1)c1cc(=O)c2ccccc2o1 | inconclusive: 7.94 µM [inhibitor, partial curve] |
| C=CCC(Nc1ccccc1)C12C=CC(O1)C(C(=O)OC)=C2C(=O)OC (stereo not given) | active: 7.94 µM |
| Cc1cc(-n2c(C)nc3ccccc3c2=O)ccc1NC(=O)c1cccc([N+](=O)[O-])c1C | inconclusive: 8.91 µM [inhibitor, single point] |
| COc1ccc(C2/C=C\CN(S(=O)(=O)c3ccc(C)cc3)[C@H](Cc3ccccc3)C(=O)N2Cc2ccc(F)cc2)cc1 (stereo not given in full) | inconclusive: 15.8 µM [inhibitor, partial curve] |
| CCN1C(=O)N/C(=C/c2ccc(C)o2)C1=O | inconclusive: 22.4 µM [inhibitor, single point] |
| CCn1c(C)nc2cc(C(=O)NNC(=S)Nc3ccc(Cl)cc3)ccc21 | inconclusive: 35.5 µM [inhibitor, single point] |
| O=C(NNC(=O)C1CCCCC1)C(=O)NC1CCCCC1 | inconclusive: 12.6 µM [inhibitor, partial curve] |
| CCC(=O)N1CCN(c2ccc(NC(=O)c3ccc(Br)o3)cc2)CC1 | inconclusive: 11.2 µM [inhibitor, partial curve] |
| O=C1CC(=O)N(Cc2cccs2)C(=O)N1 | active: 20 µM |
| CC(C)CN1C(=O)/C(=C/c2ccco2)NC1=S | inconclusive: 31.6 µM [inhibitor, single point] |
| CN(C)c1ccc2c(O)cc(=O)n(C)c2c1 | active: 25.1 µM |
| O=C(COc1ccc(F)cc1)NCc1ccc2c(c1)CCN2C(=O)c1ccc(F)cc1 | inactive |
| Cc1ccc(C)c(N2CCN(c3nc4ccccc4n4nnnc34)CC2)c1 | inconclusive: 39.8 µM [inhibitor, single point] |
| CCOC(=O)c1ccc(N/C=C/C(=O)c2ccco2)cc1 | inconclusive: 5.01 µM [inhibitor, partial curve] |
| Oc1c(C(c2cccc(Cl)c2)N2CCOCC2)sc2nc(-c3ccco3)nn12 (stereo not given) | inconclusive: 17.8 µM [inhibitor, single point] |
| CCN(CC)c1ccc(/C=c2\sc3nnc(-c4ccccc4Cl)n3c2=O)cc1 | active: 7.08 µM |
| COCCNC(=S)NCc1cccs1 | inactive |
| Cc1cc(N2CCOCC2)nc2ccc(NC(=S)NCc3ccc4c(c3)OCO4)cc12 | inconclusive: 14.1 µM [inhibitor, partial curve] |
| Cc1cc(C)nc(SCc2cn3cc(Cl)ccc3n2)n1 | inconclusive: 22.4 µM [inhibitor, single point] |
| CC(C)C(=O)N1CCN(c2ccc([N+](=O)[O-])c(NC(C)c3ccccc3)c2)CC1 (stereo not given) | active: 15.8 µM |

| SMILES | Potency |
| --- | --- |
| CCOc1ccc(C(=O)Nc2ccccc2-c2ccccc2)cc1Cl | inconclusive: 25.1 µM [inhibitor, partial curve] |
| CC1=Nc2ccc(C)cc2/C1=C/c1c(N)n2c(S(=O)(=O)C(C)C)nsc2nc1=O | inconclusive: 12.6 µM [inhibitor, partial curve] |
| O=Cc1ccc(B(O)O)cc1 | inactive |
| CC(=O)C(N=Nc1ccccc1)(Sc1nnc(-c2ccccc2)n1-c1ccccc1)C(=O)Nc1ccccc1 (stereo not given) | inactive |
| CCOC(=O)c1c(NC(=O)CCc2ccc(CC)o2)sc(C)c1C | inconclusive: 35.5 µM [inhibitor, single point] |
| Cc1ccc(S(=O)(=O)c2c(C)nn(C(C)(C)C)c2OC(=O)c2ccc(Br)o2)cc1 | inconclusive: 39.8 µM [inhibitor, single point] |
| O=C(Nc1ccc(N2CCCCC2)cc1)c1ccc2c(c1)OCCO2 | inconclusive: 5.01 µM [inhibitor, partial curve] |
| O=C(Cc1ccc2c(c1)CCCC2)Nc1ccccc1Br | inconclusive: 35.5 µM [inhibitor, partial curve] |
| CC1=NN(c2cccc(C(=O)O)c2)C(=O)/C1=C\C=C/c1ccccc1 | active: 7.08 µM |
| CCOC(=O)c1ccc(-n2c(=S)sc3c(=O)[nH]c(C)nc32)cc1 | inconclusive: 39.8 µM [inhibitor, single point] |
| Cc1cc(C)n(C(C[N+](=O)[O-])c2ccc(Cl)cc2)n1 (stereo not given) | inconclusive: 28.2 µM [inhibitor, single point] |
| CCOCc1c(C(=O)Nc2cc(OCC)c(N3CCOCC3)cc2OCC)oc2ccccc12 | inconclusive: 17.8 µM [inhibitor, partial curve, poor fit] |
| CCc1ccc(C(=O)NC(=S)Nc2ccc(N3CCOCC3)cc2)cc1 | inconclusive: 11.2 µM [inhibitor, partial curve] |
| CCOCCc1nn2c(=O)cc(COC(=O)c3ccccc3Br)nc2s1 | inconclusive: 20 µM [inhibitor, single point] |
| Cc1nc(NC(=O)c2ccco2)sc1-c1csc(Nc2ccc(Cl)cc2Cl)n1 | inconclusive: 7.94 µM [inhibitor, partial curve] |
| C=CCn1c(SCc2nc3ccccc3c(=O)[nH]2)nnc1-c1cc2cc(Cl)ccc2o1 | inactive |
| Cc1cc(NC(=O)CN2CC3CC(C2)c2cccc(=O)n2C3)nc2c1c(=O)oc1ccccc12 (stereo not given) | inactive |
| Cc1oc(-c2ccccc2F)nc1Cn1c(SCc2cccc(Cl)c2)nc2ccncc21 | inconclusive: 10 µM [inhibitor, partial curve] |
| CCCn1c(SCCc2ccccc2)nc2c1c(=O)[nH]c(=O)n2C | inactive |
| CCNC(=S)N/N=C/c1ccc(C(=O)O)cc1 | inactive |
| S=c1[nH]c(-c2ccccc2)cn1/N=C/c1cccc2ccccc12 | active: 3.55 µM |
| Cc1ccc(-n2ncc3c(N4CCN(Cc5ccccc5)CC4)ncnc32)cc1C | inconclusive: 15.8 µM [inhibitor, partial curve] |
